According to the supplement of paper PMC3334620:
Whole data set: some 33,000 sequences, median “E-score (-0.5 to 0.5)” near -0.053, cut for the highest 2% near 0.37. The list shows a part of the results.

molecular target: Hap1 (UniProt P0CE41); assay: PBM E-score (8-mer binding enrichment) (E-score (-0.5 to 0.5)); higher = stronger / more preferred TF binding; most listed sequences are background and not binding sites; conditions: protein concentration: 200 nM; construct: GST-DNA-binding domain
UniProt P0CE41, sequence (P0CE41 whole entry, the tested form may be a part): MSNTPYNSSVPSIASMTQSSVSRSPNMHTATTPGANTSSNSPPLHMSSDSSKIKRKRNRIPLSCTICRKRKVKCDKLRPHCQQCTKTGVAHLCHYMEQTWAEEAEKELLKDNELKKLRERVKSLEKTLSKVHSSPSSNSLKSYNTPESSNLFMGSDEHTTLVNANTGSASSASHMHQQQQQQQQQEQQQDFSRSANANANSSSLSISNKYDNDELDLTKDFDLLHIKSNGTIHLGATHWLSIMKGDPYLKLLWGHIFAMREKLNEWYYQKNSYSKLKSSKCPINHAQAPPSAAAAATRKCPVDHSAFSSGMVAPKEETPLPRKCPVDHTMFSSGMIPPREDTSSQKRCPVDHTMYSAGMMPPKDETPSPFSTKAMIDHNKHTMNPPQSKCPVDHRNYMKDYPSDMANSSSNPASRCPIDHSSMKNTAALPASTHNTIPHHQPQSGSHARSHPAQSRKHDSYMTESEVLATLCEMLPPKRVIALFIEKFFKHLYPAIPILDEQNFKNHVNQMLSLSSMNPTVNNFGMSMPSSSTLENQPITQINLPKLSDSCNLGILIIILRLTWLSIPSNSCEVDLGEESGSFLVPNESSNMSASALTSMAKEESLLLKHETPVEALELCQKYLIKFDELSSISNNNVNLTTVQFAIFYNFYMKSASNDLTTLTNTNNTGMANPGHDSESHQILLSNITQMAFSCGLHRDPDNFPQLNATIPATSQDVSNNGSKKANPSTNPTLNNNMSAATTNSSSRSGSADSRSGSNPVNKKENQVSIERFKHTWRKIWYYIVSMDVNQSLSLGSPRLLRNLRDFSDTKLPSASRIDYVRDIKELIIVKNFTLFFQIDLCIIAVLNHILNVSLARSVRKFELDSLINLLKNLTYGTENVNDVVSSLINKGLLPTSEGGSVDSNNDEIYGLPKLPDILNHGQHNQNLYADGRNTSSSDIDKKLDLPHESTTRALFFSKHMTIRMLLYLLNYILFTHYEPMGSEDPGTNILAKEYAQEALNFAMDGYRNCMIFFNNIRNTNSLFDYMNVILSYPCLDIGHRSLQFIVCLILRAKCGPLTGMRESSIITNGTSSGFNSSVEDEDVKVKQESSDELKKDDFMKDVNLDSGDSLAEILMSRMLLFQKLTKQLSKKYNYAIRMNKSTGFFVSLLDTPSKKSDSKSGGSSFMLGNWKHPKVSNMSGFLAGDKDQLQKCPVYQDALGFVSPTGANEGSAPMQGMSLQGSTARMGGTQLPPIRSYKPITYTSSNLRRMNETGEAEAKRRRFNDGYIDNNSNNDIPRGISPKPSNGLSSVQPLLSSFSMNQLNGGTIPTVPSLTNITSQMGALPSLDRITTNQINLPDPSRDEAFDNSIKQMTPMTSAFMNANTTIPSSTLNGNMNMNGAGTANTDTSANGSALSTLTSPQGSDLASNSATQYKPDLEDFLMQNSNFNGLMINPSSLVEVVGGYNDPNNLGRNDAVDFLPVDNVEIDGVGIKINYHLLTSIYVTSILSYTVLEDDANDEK
In short: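 Universal all-10-mer Agilent arrays, fresh or stripped once, were converted to double-stranded form by primer extension. GST-tagged yeast transcription factors from PURExpress in vitro transcription/translation, full-length or DNA-binding domain only, were applied at about 100-200 nM and detected with fluorescent anti-GST. After masliner normalisation, the Universal PBM Analysis Suite scored each ungapped eight-base word together with its reverse complement by E-score.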

Sequence	PBM E-score
AAATGTGA	-0.186
AGCGCTCA	-0.0312
CCTTGTCA	-0.311
CGAATTCG	0.228
GAACGCGA	-0.061
AGAGCAGA	-0.17
ATATGTAC	0.0573
CGCGCACC	0.0372
ACCGTATA	-0.119
AGACGGAT	0.0909
ATAGAAAA	-0.236
AAGCCGCT	0.14
CAGAGGCA	-0.2
ACGTGTAC	-0.157
AGTATAAT	0.0488
CTCGCCGA	0.276
ATCGGATC	0.339
CAATCCAA	-0.253
AGGCGTTA	0.0359
CAAAGATA	-0.148
TACTACCA	-0.298
CGTCCAGA	-0.168
GCATATCC	0.0624
ATCTTGCA	0.00822

Sequence	PBM E-score
CCGGACAC	0.351
GAAGCACC	-0.177
GACTACTC	0.0831
CCGTGCAG	0.129
ACTTGGGC	-0.0344
CCTAAGAG	-0.121
AGAGAACC	-0.161
TGGCCCCA	-0.196
ATACGGAA	0.33
CTAGATAG	-0.139
ACCTGCCT	-0.122
CCGATCGA	0.325
AGTCACGC	-0.197
TCCCAGGA	-0.167
GATAGAAA	-0.0692
AAATCTTC	0.0751
GAATTCCA	0.0237
AAAAATAA	-0.0273
TTAAGAAA	-0.136
AGAAAATA	-0.0987
CACGTGGG	-0.229
CCCGGTCC	0.365
GCTCAAGC	-0.202
AAGCTTGC	-0.255

Sequence	PBM E-score
GGACGCTA	0.0559
ACCGCGAC	0.0253
CCGTAGAA	-0.0878
GGCCCATA	0.0917
CGGCAGTA	0.299
AGGTAGAG	-0.0946
ACAGCGAC	-0.215
ATTCCCGG	0.395
CACATTCC	0.0842
CCCATAGG	-0.0829
CCTTGGCA	-0.232
GTATCAAA	-0.186
GTTATCGA	0.165
ATGCGCGC	0.217
ACTTAAAA	0.0671
ACGGTTGC	-0.063
AAGGGGCC	-0.0696
CTGGCCAA	-0.142
CGGCTATC	0.286
CACCTCGC	0.135
AGTTATTG	-0.116
CAAGCGTA	-0.264
AAGCCCTA	-0.139
CTTAACAC	-0.135

Sequence	PBM E-score
CCCTGCAA	-0.168
ACGGGAGT	0.138
AGGCAGAG	-0.234
AACTATTC	0.0539
ACTCCACC	-0.0311
GGTGGTCA	-0.0436
TGTGGAAA	-0.016
ATCTTTTC	0.0446
AGAGAACA	-0.157
ACATAGCC	0.0649
ATTCCCGC	0.318
CCCGCTGA	0.106
CCCTATTC	0.146
AGGAGCCG	0.124
CCCGGCGA	0.337
CCCCTAAC	-0.12
CATCACAG	-0.258
GCAAACGA	-0.121
ACGCGAGA	-0.181
CTATCTTC	-0.13
GAGCAAAC	-0.00159
GAAGCGGA	0.186
